# In the supplement of paper PMC8728848:
# This is one part of the list.
# B1: PX9961A-pdi-456-24-456 (Parabacteroides distasonis) (protein)
# chain: KTSSTQLPTIDAISSVADLTNAVNGVYEQQATEVGSYGAEFTLLADLRSGDFQSISTVNHAGPMYRYQTGKNDEMVYSFYKLFYNSLARLNNVLAAAENLEGADVDILKGELYAMRALYHFDLARVFAKLPSTTDMNDLGIVLSTEVYPTDYIGTRATLQQTYDQILKDIETALPLLSKDKQTGHINYWGALAIRARAYLYLEKNKEALADCKEIIASSPYKLYTRDEYIGAWDKEGTNEAIFEILVTPNYNAQRNSIGYFTHASGYGECAATESFLEELAKHPGDIRTELFAKETDNGYDGTYPQKYKGRDGQIYVNNPKVVRLSEVYLIAAEAALKAGDTSAAAGYMNTLRKNRIENYTDVASITLDDILLERRLELFTEGHTAWDAWRNGKSVNNKFVGEVKPGDYRTIMAIPIGEITVSRGQLIQNPGY
# Assays:
# Experiment in all cases: glycan array binding signal (z-score within array); higher = stronger binding
# Details in all cases: glycan notation: IUPAC condensed, linker removed
# [1] = target: Fuc(a1-3)[Gal(b1-4)]GlcNAc(b1-3)Gal(b1-3)[Fuc(a1-4)]GlcNAc
# How it was run: (§1)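 Negative Z-scores can be read as non-binding. The Z-score is calculated within each array and then averaged across arrays of one protein sequence at different concentrations or buffers and across linkers. Arrays, 3228 in all, were curated from the Consortium for Functional Glycomics database and kept only where the protein sequence was available.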
# [2] = target: Fuc(a1-3)[Gal(b1-4)]GlcNAc(b1-3)Gal(b1-4)[Fuc(a1-3)]GlcNAc
# How it was run: as §1
# [3] = target: Fuc(a1-3)[Gal(b1-4)]GlcNAc(b1-3)Gal(b1-4)[Fuc(a1-3)]GlcNAc(b1-3)Gal(b1-4)[Fuc(a1-3)]GlcNAc
# How it was run: as §1
# [4] = target: Fuc(a1-3)[Gal(b1-4)]GlcNAc(b1-3)GalNAc
# How it was run: as §1
# [5] = target: Fuc(a1-3)[Gal(b1-4)]GlcNAc(b1-6)GalNAc
# How it was run: as §1
# [6] = target: Fuc(a1-3)[Gal(b1-4)]GlcNAc(b1-6)[Gal(b1-3)GlcNAc(b1-3)]Gal(b1-4)Glc
# How it was run: as §1
# [7] = target: Fuc(a1-3)[Gal(b1-4)]GlcNAc6S
# How it was run: as §1
# [8] = target: Fuc(a1-3)[Gal3S(b1-4)]Glc
# How it was run: as §1
# [9] = target: Fuc(a1-3)[Gal3S(b1-4)]GlcNAc
# How it was run: as §1
# [10] = target: Fuc(a1-3)[Gal3S(b1-4)]GlcNAc6S
# How it was run: as §1
# [11] = target: Fuc(a1-3)[GalNAc(b1-4)]GlcNAc
# How it was run: as §1
# [12] = target: Fuc(a1-3)[GalNAc(b1-4)]GlcNAc6S
# How it was run: as §1
# Fuc(a1-4)GlcNAc = target: Fuc(a1-4)GlcNAc
# How it was run: as §1
# Fuc(b1-3)GlcNAc = target: Fuc(b1-3)GlcNAc
# How it was run: as §1
# Gal(a1-2)Gal = target: Gal(a1-2)Gal
# How it was run: as §1
# Gal(a1-3)Gal = target: Gal(a1-3)Gal
# How it was run: as §1
# Gal(a1-3)Gal(b1-3)GlcNAc = target: Gal(a1-3)Gal(b1-3)GlcNAc
# How it was run: as §1
# [13] = target: Gal(a1-3)Gal(b1-3)GlcNAc(b1-2)Man
# How it was run: as §1
# [14] = target: Gal(a1-3)Gal(b1-3)GlcNAc(b1-2)Man(a1-3)[Gal(a1-3)Gal(b1-3)GlcNAc(b1-2)Man(a1-6)]Man(b1-4)GlcNAc(b1-4)GlcNAc
# How it was run: as §1
# [15] = target: Gal(a1-3)Gal(b1-3)GlcNAc(b1-3)GalNAc
# How it was run: as §1
# [16] = target: Gal(a1-3)Gal(b1-3)GlcNAc(b1-6)GalNAc
# How it was run: as §1
# [17] = target: Gal(a1-3)Gal(b1-3)[Fuc(a1-4)]GlcNAc(b1-2)Man(a1-3)[Gal(a1-3)Gal(b1-3)[Fuc(a1-4)]GlcNAc(b1-2)Man(a1-6)]Man(b1-4)GlcNAc(b1-4)GlcNAc
# How it was run: as §1
# Gal(a1-3)Gal(b1-4)Glc = target: Gal(a1-3)Gal(b1-4)Glc
# How it was run: as §1
# Gal(a1-3)Gal(b1-4)GlcNAc = target: Gal(a1-3)Gal(b1-4)GlcNAc
# How it was run: as §1
# [18] = target: Gal(a1-3)Gal(b1-4)GlcNAc(b1-2)Man
# How it was run: as §1
# [19] = target: Gal(a1-3)Gal(b1-4)GlcNAc(b1-2)Man(a1-3)[Gal(a1-3)Gal(b1-4)GlcNAc(b1-2)Man(a1-6)]Man(b1-4)GlcNAc(b1-4)GlcNAc
# How it was run: as §1
# [20] = target: Gal(a1-3)Gal(b1-4)GlcNAc(b1-3)GalNAc
# How it was run: as §1
# [21] = target: Gal(a1-3)Gal(b1-4)GlcNAc(b1-6)GalNAc
# How it was run: as §1
# [22] = target: Gal(a1-3)Gal(b1-4)[Fuc(a1-3)]GlcNAc
# How it was run: as §1
# [23] = target: Gal(a1-3)Gal(b1-4)[Fuc(a1-3)]GlcNAc(b1-2)Man(a1-3)[Gal(a1-3)Gal(b1-4)[Fuc(a1-3)]GlcNAc(b1-2)Man(a1-6)]Man(b1-4)GlcNAc(b1-4)GlcNAc
# How it was run: as §1
# Gal(a1-3)GalNAc = target: Gal(a1-3)GalNAc
# How it was run: as §1
# [24] = target: Gal(a1-3)[Gal(a1-4)]Gal(b1-4)GlcNAc
# How it was run: as §1
# [25] = target: Gal(a1-4)Gal(b1-3)GlcNAc(b1-2)Man(a1-3)[Gal(a1-4)Gal(b1-3)GlcNAc(b1-2)Man(a1-6)]Man(b1-4)GlcNAc(b1-4)GlcNAc
# How it was run: as §1
# Gal(a1-4)Gal(b1-4)Glc = target: Gal(a1-4)Gal(b1-4)Glc
# How it was run: as §1
# Gal(a1-4)Gal(b1-4)GlcNAc = target: Gal(a1-4)Gal(b1-4)GlcNAc
# How it was run: as §1
# [26] = target: Gal(a1-4)Gal(b1-4)GlcNAc(b1-2)Man(a1-3)[Gal(a1-4)Gal(b1-4)GlcNAc(b1-2)Man(a1-6)]Man(b1-4)GlcNAc(b1-4)GlcNAc
# How it was run: as §1
# [27] = target: Gal(a1-4)Gal(b1-4)GlcNAc(b1-3)Gal(b1-4)Glc
# How it was run: as §1
# Gal(a1-4)GlcNAc = target: Gal(a1-4)GlcNAc
# How it was run: as §1
binder,measurement,setting,value
B1,glycan array binding signal (z-score),[1],-0.331
same,glycan array binding signal (z-score),[2],0.307
same,glycan array binding signal (z-score),[3],-0.015
same,glycan array binding signal (z-score),[4],-0.161
same,glycan array binding signal (z-score),[5],-0.18
same,glycan array binding signal (z-score),[6],-0.42
same,glycan array binding signal (z-score),[7],-0.406
same,glycan array binding signal (z-score),[8],0.02
same,glycan array binding signal (z-score),[9],0.282
same,glycan array binding signal (z-score),[10],-0.41
same,glycan array binding signal (z-score),[11],0.918
same,glycan array binding signal (z-score),[12],-0.23
same,glycan array binding signal (z-score),Fuc(a1-4)GlcNAc,7.24
same,glycan array binding signal (z-score),Fuc(b1-3)GlcNAc,-0.388
same,glycan array binding signal (z-score),Gal(a1-2)Gal,-0.234
same,glycan array binding signal (z-score),Gal(a1-3)Gal,-0.037
same,glycan array binding signal (z-score),Gal(a1-3)Gal(b1-3)GlcNAc,-0.523
same,glycan array binding signal (z-score),[13],-0.316
same,glycan array binding signal (z-score),[14],0.289
same,glycan array binding signal (z-score),[15],-0.446
same,glycan array binding signal (z-score),[16],-0.286
same,glycan array binding signal (z-score),[17],-0.006
same,glycan array binding signal (z-score),Gal(a1-3)Gal(b1-4)Glc,-0.148
same,glycan array binding signal (z-score),Gal(a1-3)Gal(b1-4)GlcNAc,0.08
same,glycan array binding signal (z-score),[18],-0.561
same,glycan array binding signal (z-score),[19],0.21
same,glycan array binding signal (z-score),[20],-0.276
same,glycan array binding signal (z-score),[21],-0.576
same,glycan array binding signal (z-score),[22],-0.421
same,glycan array binding signal (z-score),[23],0.63
same,glycan array binding signal (z-score),Gal(a1-3)GalNAc,-0.152
same,glycan array binding signal (z-score),[24],0.431
same,glycan array binding signal (z-score),[25],-0.338
same,glycan array binding signal (z-score),Gal(a1-4)Gal(b1-4)Glc,0.665
same,glycan array binding signal (z-score),Gal(a1-4)Gal(b1-4)GlcNAc,0.305
same,glycan array binding signal (z-score),[26],0.514
same,glycan array binding signal (z-score),[27],0.043
same,glycan array binding signal (z-score),Gal(a1-4)GlcNAc,-0.171
